In PubChem BioAssay (NCI):
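Step 1: Grow cells in 96-well plates. Step 2: Expose to compound for 48 hours at 5 concentrations. Step 3: Interpolate endpoints linearly; if unreached, use highest concentration. GI50: concentration for 50% inhibition of growth. At the TGI there is no net growth.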

System: NCI-H322M lung
Assay: inhibition of tumour cell growth, NCI panel, 48 h

Cc1nc2cnc(N)c(C#Cc3cncc(C(=O)Nc4ccc(Cl)c(C(F)(F)F)c4)c3)c2nc1C
GI50: 3.7 µM
TGI: 20.8 µM
